In PMC4336329 (PLoS ONE, 2015):
Out of some 310,000 compounds screened, about 2,200 (0.71%) showed an effect of 50% or more. Effects have a minus sign here. The list shows a part of the results.

Each compound was assayed against human ether-à-go-go-related gene (hERG) potassium channel (human, UniProt Q12809) (assay: primary screen, population patch clamp on CHO cells stably expressing hERG).
Chain of human ether-à-go-go-related gene (hERG) potassium channel (Q12809 whole entry, looked up): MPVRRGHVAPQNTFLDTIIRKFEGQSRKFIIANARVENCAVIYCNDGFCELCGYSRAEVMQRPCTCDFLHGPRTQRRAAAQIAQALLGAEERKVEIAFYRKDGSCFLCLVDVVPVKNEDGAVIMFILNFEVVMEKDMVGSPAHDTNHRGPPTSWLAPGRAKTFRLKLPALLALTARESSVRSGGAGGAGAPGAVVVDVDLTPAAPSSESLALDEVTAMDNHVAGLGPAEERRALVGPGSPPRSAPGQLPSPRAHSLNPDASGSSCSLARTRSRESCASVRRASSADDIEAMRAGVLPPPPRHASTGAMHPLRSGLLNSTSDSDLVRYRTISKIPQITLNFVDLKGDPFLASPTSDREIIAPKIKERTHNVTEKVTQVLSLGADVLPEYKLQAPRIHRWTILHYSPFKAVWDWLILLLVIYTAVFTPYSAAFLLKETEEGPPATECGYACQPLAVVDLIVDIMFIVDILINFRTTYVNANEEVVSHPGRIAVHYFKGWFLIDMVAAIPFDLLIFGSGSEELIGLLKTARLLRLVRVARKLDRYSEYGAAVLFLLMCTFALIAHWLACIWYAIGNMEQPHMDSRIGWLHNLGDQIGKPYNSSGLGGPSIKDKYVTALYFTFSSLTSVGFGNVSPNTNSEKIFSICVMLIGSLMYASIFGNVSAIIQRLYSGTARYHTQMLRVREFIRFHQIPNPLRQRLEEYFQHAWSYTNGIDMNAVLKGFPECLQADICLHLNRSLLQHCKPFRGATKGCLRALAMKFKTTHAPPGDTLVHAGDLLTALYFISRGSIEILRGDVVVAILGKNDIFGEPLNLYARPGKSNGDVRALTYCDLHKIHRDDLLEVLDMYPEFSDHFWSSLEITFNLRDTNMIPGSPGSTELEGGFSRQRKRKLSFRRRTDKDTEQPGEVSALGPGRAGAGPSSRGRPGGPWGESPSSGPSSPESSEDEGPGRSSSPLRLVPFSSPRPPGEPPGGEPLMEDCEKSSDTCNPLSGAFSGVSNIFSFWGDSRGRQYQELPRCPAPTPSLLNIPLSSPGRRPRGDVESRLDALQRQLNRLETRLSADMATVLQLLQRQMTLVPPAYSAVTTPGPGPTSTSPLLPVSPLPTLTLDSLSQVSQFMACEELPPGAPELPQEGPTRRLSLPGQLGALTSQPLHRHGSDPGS

Row | Compound | hERG current change (%, negative = inhibition) at 1uM [%]
1 | O=C(O)C1Cc2ccccc2CN1C(=O)CCl (stereo not shown) | 11.2
2 | CC(C)(Oc1ccc(Cl)cc1)C(=O)N1CCC(C(N)=O)CC1 | 5.21
3 | O=C(O)c1ccc(NC(=O)c2cccc(C(=O)Nc3ccc(C(=O)O)cc3)c2)cc1 | 15
4 | O=C(O)CN(c1ccccc1)C1SC(=O)NC1=O (stereo not shown) | 5.91
5 | O=C(CSc1ccc2nnc(-c3ccccc3)n2n1)NCC1CCCO1 (stereo not shown) | 2.68
6 | Cc1ncc(/C=C2\C(=O)Nc3ccccc32)[nH]1 | 13.6
7 | Cc1ccccc1Cn1c(-c2cncs2)nc2ccccc21 | 5.21
8 | CCC1Sc2ccc(S(=O)(=O)CCC(=O)NCc3cccs3)cc2NC1=O (stereo not shown) | 11.2
9 | c1ccc(CN=C2NN=C(c3ccccc3)CS2)cc1 | 16.4
10 | CCOc1ccc(OCC)c(NC(=O)CN(c2ccc(OC)cc2)S(=O)(=O)c2c(C)noc2C)c1 | 15.7
11 | CCc1nc2ccccc2c(C(=O)Nc2cc(C)ccc2C)c1C | 4.44
12 | COc1cccc(C(c2sc3ncnn3c2O)N2CCN(C(=O)c3ccco3)CC2)c1 (stereo not shown) | -13.3
13 | Cc1ccc(S(=O)(=O)Oc2ccccc2/C=N/O)cc1 | 7.57
14 | O=C1CN(C(=O)c2cc(F)cc(F)c2)c2ccccc2N1 | 1.48
15 | Cc1ccc(-c2cc(C(F)(F)F)n3nc(C(=O)Nc4c(C)n(C)n(-c5ccccc5)c4=O)cc3n2)cc1 | -1.98
16 | CCN(CC)C(=O)COc1c(-c2ccco2)oc2ccccc2c1=O | 9.53
17 | CCCCN(C)CCOc1ccccc1OCC.O=C(O)C(=O)O | 7.28
18 | Cc1ccc(NC(=O)CNCCCN2CCOCC2)cc1S(=O)(=O)N1CCCCC1.O=C(O)C(=O)O | 8.24
19 | CCOC(=O)CC1C(=O)NCCN1C(=S)NC(=O)c1ccccc1OC (stereo not shown) | 16.8
20 | Cc1ccc(-c2nnc(CN3CCCCC3C)o2)cc1 (stereo not shown) | 3.3

Row | Compound | hERG current change (%, negative = inhibition) at 1uM [%]
21 | C/C(=N\NC(=O)c1cccs1)c1ccc2c(c1)OCO2 | 8.4
22 | CCOc1ccc(N(C)S(=O)(=O)c2ccc(C)c(C(=O)Nc3nnc(C4CC4)s3)c2)cc1 | 12.4
23 | O=C(CN1CCN(Cc2ccccc2Cl)C1=O)NC1CCCCCC1 | 7.78
24 | COc1ccc2nc(NC(=O)CSc3nccc(C)n3)sc2c1 | -2.35
25 | O=C(CN1C(=O)NC2(CCCc3ccccc32)C1=O)c1ccc(Br)cc1 (stereo not shown) | -1.44
26 | COC(=O)CSc1nc(NCC(C)C)nc(N2CCOCC2)n1 | 0.72
27 | CN(Cc1ccccc1)C(=O)NC1CCCCC1 | -8.06
28 | Cc1ccc(SCC(=O)Nc2ccc(S(=O)(=O)Nc3ncccn3)cc2)cc1 | 9.51
29 | CC(=O)c1ccc(N(C(=O)Cn2nnc3ccccc32)C(C(=O)NCc2ccccc2)c2ccccn2)cc1 (stereo not shown) | -10.6
30 | COCCNC(=O)C1(S(=O)(=O)c2ccccc2)CC=CC1 | 5.27
31 | CCOC(=O)c1ccc(NC(=O)CC2OCCN(CC)C2=O)cc1 (stereo not shown) | 4.02
32 | C=C(C)COc1ccc(-c2nc(N)ncc2Oc2ccccc2OCC)c(O)c1 | 11
33 | O=C(c1cccnc1Cl)N1CCOCC1 | 20.2
34 | CCOC(=O)CCCNC(=O)COc1ccccc1C#N | 16.9
35 | Cc1cccc(N(C(=O)c2snc(C(N)=O)c2N)C(C(=O)NCC2CCCO2)c2ccc(N(C)C)cc2)c1 (stereo not shown) | 19.7
36 | CC(C)(C)c1ccc(NC(=O)COC(=O)CCc2nc3ccccc3c(=O)[nH]2)cc1 | 15.1
37 | Oc1ccc(-c2nnc(SCC3CCCCC3)o2)cc1 | 7.92
38 | Cc1c(C)c2ccc(OCC(=O)Nc3cccnc3)c(C)c2oc1=O | 13.1
39 | CNC(=O)COC(=O)c1cc2c(C)nn(-c3ccc(F)cc3)c2s1 | -6.54
40 | Cc1ccc(-c2cc(C(F)(F)F)n3ncc(C(=O)N4CCCc5ccccc54)c3n2)cc1 | 8.82

Row | Compound | hERG current change (%, negative = inhibition) at 1uM [%]
41 | CN(Cc1cccs1)S(=O)(=O)c1ccc(Cl)cc1F | 8.81
42 | O=C(Nc1cccc2nsnc12)c1cccnc1 | 7.94
43 | CC(C)n1nccc1N(Cc1ccc(Cl)cc1)S(=O)(=O)c1ccccc1 | 2.65
44 | CCOc1ccc(OCc2ccc(C(=O)Nc3cccnc3)cc2)cc1 | 16.5
45 | Cc1ccccc1NC(=O)CCN1CCCC1.Cl | 5.51
46 | CC(=O)Nc1ccccc1C(=O)C(=O)Nc1cccc(C(=O)NCC2CCCO2)c1 (stereo not shown) | 11
47 | O=C1C2C3CCCC3=C3CCCC3C2C(=O)N1c1cccc(Cl)c1 (stereo not shown) | 10.8
48 | Cc1ccccc1C(=O)Nc1c(C)[nH]c(=O)[nH]c1=O | 6.76
49 | NC(=O)[C@@H]1CCCN1C(=O)[C@@H](Cc1cnc[nH]1)NC(=O)[C@@H]1CCC(=O)N1 | 4.72
50 | Cc1ccc(N/N=C(\C#N)C(N)=S)cc1C | -1.43
51 | COc1ccc(NC(=O)CSc2nnc(Cc3ccccc3)c(=O)n2N)cc1OC | 3.22
52 | CCOC(=O)Cc1cc(OC)c(OC)cc1Cc1cc(OC)c(OC)cc1CC(=O)OCC | 15.4
53 | COc1ccc(NC(=S)Nc2cccc(Cl)c2)cc1OC | 14
54 | Cc1ccccc1Cn1c2ccccc2c2cn[nH]c(=O)c21 | 17.5
55 | Cl.OC(COCc1ccc(Cl)cc1)CN1CCCCC1 (stereo not shown) | 0.152
56 | COc1ccccc1-c1nc2c(c(SCC(=O)N3CCCCC3)n1)Cc1c(CO)cnc(C)c1O2 | 12.4
57 | Nc1nc(SCC(=O)c2cc(F)ccc2F)n[nH]1 | 14.3
58 | CCOc1ccc(CN2CCN(Cc3ccc(C)o3)CC2CCO)cc1 (stereo not shown) | -87.8
